Source: a collection of fitness landscapes (doi:10.1016/j.celrep.2020.107928)
Whole data set: some 81,000 sequences, median “one-hybrid fitness for binding parS DNA” near -0.17, cut for the highest 2% near 0.51. The list shows a part of the results.

B1: Caulobacter ParB omega fusion; a variant is named by its letters at X, in order, B8GW30 (parent)
chain: MESVVVGEPGMSEGRRGLGRGLSALLGEVDAAPAQAPGEQLGGSREAPIEILQRNPDQPRRTFREEDLEDLSNSIREKGVLQPILVRPSPDTAGEYQIVAGERAWRAAQRAGLKTVPIMVRELDDLAVLEIGIIENVQRADLNVLEEALSYKVLMEKFERTQENIAQTIGKSXSHVANXMRLLXLPDEVQSYLVSGELTAXHARAIAAAADPVALAKQIIEGGLSVRETEALARKAPNLSAGKSKGGRPPRVKDTDTQALESDLSSVLGLDVSIDHRGSTGTLTITYATLEQLDDLCNRLTRGI

Variants of: B1
Test: one-hybrid fitness for binding parS DNA (scaled: cognate 1, non-cognate 0); higher = stronger binding
Conditions: with parS DNA site
In short: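 Fitness is the rescaled log change in variant-to-wild-type read ratio, measured by Illumina sequencing of plasmids before and after bacterial one-hybrid selection. The scale puts cognate at 1 and non-cognate at 0. Selection of Caulobacter ParB libraries, four specificity codons randomised, took place in E. coli USO with a HIS3 reporter, site 19 bp from the promoter, over 48 hours at 37°C on M9-minus-histidine with 0.1 mM IPTG and 5 mM 3-AT.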

| Variant | one-hybrid fitness for binding parS DNA |
| --- | --- |
| QSCQ | ≤ 0.2 |
| PINI | ≤ 0.2 |
| SEYR | ≤ 0.2 |
| EKAT | ≤ 0.2 |
| VNSL | ≤ 0.2 |
| QAMI | ≤ 0.2 |
| SASC | ≤ 0.2 |
| PVWG | ≤ 0.2 |
| QSIY | ≤ 0.2 |
| WPCT | ≤ 0.2 |
| HQDG | ≤ 0.2 |
| HHVL | ≤ 0.2 |
| PPIK | ≤ 0.2 |
| DRMT | ≤ 0.2 |
| PDFD | ≤ 0.2 |
| DTLE | ≤ 0.2 |
| RSEW | ≤ 0.2 |
| IYLG | ≤ 0.2 |
| RPKG | ≤ 0.2 |
| HFID | ≤ 0.2 |
| RGRT | 0.676 |
| SSQF | ≤ 0.2 |
| NGTS | ≤ 0.2 |
| RFVT | 0.614 |
| SEIS | ≤ 0.2 |

| Variant | one-hybrid fitness for binding parS DNA |
| --- | --- |
| HLAG | ≤ 0.2 |
| LSMF | ≤ 0.2 |
| NKVD | ≤ 0.2 |
| LAMG | ≤ 0.2 |
| DLVC | ≤ 0.2 |
| NRAT | ≤ 0.2 |
| SVDL | ≤ 0.2 |
| VVPK | ≤ 0.2 |
| KMVN | ≤ 0.2 |
| NHVG | ≤ 0.2 |
| ESFC | ≤ 0.2 |
| CWRY | ≤ 0.2 |
| AKRG | ≤ 0.2 |
| PNYY | ≤ 0.2 |
| KIQS | ≤ 0.2 |
| RGNF | ≤ 0.2 |
| VYKY | ≤ 0.2 |
| AHLG | ≤ 0.2 |
| LRFW | ≤ 0.2 |
| IRFT | ≤ 0.2 |
| HVMG | ≤ 0.2 |
| HVVL | ≤ 0.2 |
| MTLG | ≤ 0.2 |
| QTMC | ≤ 0.2 |
| NATI | ≤ 0.2 |

| Variant | one-hybrid fitness for binding parS DNA |
| --- | --- |
| RKQV | ≤ 0.2 |
| LRRY | ≤ 0.2 |
| PFHR | ≤ 0.2 |
| FLST | ≤ 0.2 |
| RRCK | ≤ 0.2 |
| FGVS | ≤ 0.2 |
| KYEG | ≤ 0.2 |
| SQAG | ≤ 0.2 |
| HDTE | ≤ 0.2 |
| TTRN | ≤ 0.2 |
| HNQW | ≤ 0.2 |
| TPFA | ≤ 0.2 |
| NPPW | ≤ 0.2 |
| RYHC | 0.949 |
| FLWA | ≤ 0.2 |
| CSTR | ≤ 0.2 |
| AKET | ≤ 0.2 |
| EPGH | ≤ 0.2 |
| QMLN | ≤ 0.2 |
| KPPQ | ≤ 0.2 |
| RIWW | 0.219 |
| QEIS | ≤ 0.2 |
| EPQS | ≤ 0.2 |
| PEAT | ≤ 0.2 |
| WSMI | ≤ 0.2 |

| Variant | one-hybrid fitness for binding parS DNA |
| --- | --- |
| QITY | ≤ 0.2 |
| EVRC | ≤ 0.2 |
| RMKL | ≤ 0.2 |
| AKKF | ≤ 0.2 |
| TNAL | ≤ 0.2 |
| RREC | 0.731 |
| NMRC | ≤ 0.2 |
| TTAF | ≤ 0.2 |
| EVKY | ≤ 0.2 |
| NLMY | ≤ 0.2 |
| RWMF | ≤ 0.2 |
| RDKG | 0.274 |
| YPPC | ≤ 0.2 |
| RFHV | ≤ 0.2 |
| ARGD | ≤ 0.2 |
| DIHS | ≤ 0.2 |
| SCVC | ≤ 0.2 |
| DGTG | ≤ 0.2 |
| WQTS | ≤ 0.2 |
| FTAT | ≤ 0.2 |
| LACR | ≤ 0.2 |
| AKTR | ≤ 0.2 |
| MARE | ≤ 0.2 |
| KTEL | ≤ 0.2 |
| TSAW | ≤ 0.2 |

| Variant | one-hybrid fitness for binding parS DNA |
| --- | --- |
| TMRT | ≤ 0.2 |
| KVAS | ≤ 0.2 |
| RHFA | 0.516 |
| RMVA | 0.611 |
| LYTG | ≤ 0.2 |
| TPVT | ≤ 0.2 |
| PWRV | ≤ 0.2 |
| TGIT | ≤ 0.2 |
| PFTA | ≤ 0.2 |
| VTAT | ≤ 0.2 |
| RGFR | ≤ 0.2 |
| SGEV | ≤ 0.2 |
| TANY | ≤ 0.2 |
| RRDA | 0.851 |
| SHLV | ≤ 0.2 |
| IDHS | ≤ 0.2 |
| AKQI | ≤ 0.2 |
| RMVK | ≤ 0.2 |
| CCRC | ≤ 0.2 |
| ILTQ | ≤ 0.2 |
| SVDD | ≤ 0.2 |
| PAWR | ≤ 0.2 |
| QQKM | ≤ 0.2 |
| TLEH | ≤ 0.2 |
| LPNA | ≤ 0.2 |

| Variant | one-hybrid fitness for binding parS DNA |
| --- | --- |
| SHVC | ≤ 0.2 |
| CKIR | ≤ 0.2 |
| SCVT | ≤ 0.2 |
| LCKD | ≤ 0.2 |
| HRCT | ≤ 0.2 |
| IEWG | ≤ 0.2 |
| TNGL | ≤ 0.2 |
| VPVA | ≤ 0.2 |
| GKCY | ≤ 0.2 |
| TWVT | ≤ 0.2 |
| MRNC | ≤ 0.2 |
| YPGC | ≤ 0.2 |
| MERL | ≤ 0.2 |
| PLYL | ≤ 0.2 |
| LSPD | ≤ 0.2 |
| IGQG | ≤ 0.2 |
| FYVG | ≤ 0.2 |
| SAGA | ≤ 0.2 |
| SWTF | ≤ 0.2 |
| DELY | ≤ 0.2 |
| SWLY | ≤ 0.2 |
| RCYQ | ≤ 0.2 |
| KVGR | ≤ 0.2 |
| LLIL | ≤ 0.2 |
| HWAG | ≤ 0.2 |

| Variant | one-hybrid fitness for binding parS DNA |
| --- | --- |
| TYEV | ≤ 0.2 |
| PCGR | ≤ 0.2 |
| IGIS | ≤ 0.2 |
| VLKS | ≤ 0.2 |
| RQSQ | ≤ 0.2 |
| KQTK | ≤ 0.2 |
| LNRG | ≤ 0.2 |
| IPIR | ≤ 0.2 |
| MRAG | ≤ 0.2 |
| GSLW | ≤ 0.2 |
| CRCL | ≤ 0.2 |
| NTLK | ≤ 0.2 |
| AFHE | ≤ 0.2 |
| NPTH | ≤ 0.2 |
| ACNV | ≤ 0.2 |
| DVVS | ≤ 0.2 |
| AAAL | ≤ 0.2 |
| YGYE | ≤ 0.2 |
| LMQS | ≤ 0.2 |
| QTQD | ≤ 0.2 |
| DCTV | ≤ 0.2 |
| QAEV | ≤ 0.2 |
| NSGI | ≤ 0.2 |
| VPET | ≤ 0.2 |
| PSSK | ≤ 0.2 |

| Variant | one-hybrid fitness for binding parS DNA |
| --- | --- |
| CWTT | ≤ 0.2 |
| RMDR | ≤ 0.2 |
| MVRY | ≤ 0.2 |
| HYFI | ≤ 0.2 |
| YGHS | ≤ 0.2 |
| RLFA | 0.606 |
| AQKG | ≤ 0.2 |
| EQIG | ≤ 0.2 |
| HVDD | ≤ 0.2 |
| TGSA | ≤ 0.2 |
| KTCM | ≤ 0.2 |
| THYF | ≤ 0.2 |
| RRKT | 0.59 |
| AIYC | ≤ 0.2 |
| NVCA | ≤ 0.2 |
| CLQC | ≤ 0.2 |
| SSNF | ≤ 0.2 |
| NYEL | ≤ 0.2 |
| IRVD | ≤ 0.2 |
| NSTP | ≤ 0.2 |
